# The supplement of paper PMC8728848
# Some of the results follow.
# B1: Cohesin-marm-DC-ASGPR (protein)
# chain: LDITSHHHHHHDDLDAVRIKVDTVNAKPGDTVRIPVRFSGIPSKGIANCDFVYSYDPNVLEIIEIEPGDIIVDPNPDKSFDTAVYPDRKIIVFLFAEDSGTGAYAITKDGVFATIVAKVKEGAPNGLSVIKFVEVGGFANNDLVEQKTQFFDGGVNVGDTTEPATPTTPVTTPTTTDDLDAASSKFQRDLVTLRTDFSNFTSNTLAEIQALTSQGSSLQETIASLKAEVEGHKQELQAGASELQEHNKQKAHLGRCPHTCVCPSSFVCVPVHSEILLRVQQLVQDLNKLSCQVAILKNNATTERTCCPINWVEHQGSCYWFSRSGKTWPEAERYCQLENTHLVVINSREEQNFVQAHLGSAYTWMGLSDPEGVWKWVDGTDYSSGFQNWKPGQPDDWQGHGLGGGEDCAHFHPDGRWNDDVCQRSYHWVCEAGLTQASQDSHAS
# Legend:
# Assay in all cases: glycan array binding signal (z-score within array); higher = stronger binding
# Settings in all cases: glycan notation: IUPAC condensed, linker removed
# [1] = target: Gal(b1-4)GlcNAc(b1-3)Gal(b1-4)GlcNAc(b1-3)Gal(b1-4)GlcNAc(b1-3)Gal(b1-4)GlcNAc(b1-3)Gal(b1-4)GlcNAc(b1-2)[Gal(b1-4)GlcNAc(b1-3)Gal(b1-4)GlcNAc(b1-3)Gal(b1-4)GlcNAc(b1-3)Gal(b1-4)GlcNAc(b1-3)Gal(b1-4)GlcNAc(b1-6)]Man(a1-6)[Gal(b1-4)GlcNAc(b1-3)Gal(b1-4)GlcNAc(b1-3)Gal(b1-4)GlcNAc(b1-3)Gal(b1-4)GlcNAc(b1-3)Gal(b1-4)GlcNAc(b1-2)Man(a1-3)]Man(b1-4)GlcNAc(b1-4)[Fuc(a1-6)]GlcNAc
# In short: (§1)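 The binding signal is a Z-score computed within each array. Data were drawn from 3228 arrays in the Consortium for Functional Glycomics database, restricted to those with a known protein sequence. Scores were averaged over arrays of the same protein sequence at different concentrations or buffers, and over linkers, and negative values can be taken as non-binding.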
# [2] = target: Gal(b1-4)GlcNAc(b1-3)Gal(b1-4)GlcNAc(b1-3)Gal(b1-4)GlcNAc(b1-3)Gal(b1-4)GlcNAc(b1-3)Gal(b1-4)GlcNAc(b1-3)Gal(b1-4)GlcNAc(b1-2)Man(a1-3)[Gal(b1-4)GlcNAc(b1-3)Gal(b1-4)GlcNAc(b1-3)Gal(b1-4)GlcNAc(b1-3)Gal(b1-4)GlcNAc(b1-3)Gal(b1-4)GlcNAc(b1-3)Gal(b1-4)GlcNAc(b1-2)Man(a1-6)]Man(b1-4)GlcNAc(b1-4)GlcNAc
# In short: as §1
# [3] = target: Gal(b1-4)GlcNAc(b1-3)Gal(b1-4)GlcNAc(b1-3)GalNAc
# In short: as §1
# [4] = target: Gal(b1-4)GlcNAc(b1-3)Gal(b1-4)GlcNAc(b1-3)[Gal(b1-4)GlcNAc(b1-3)Gal(b1-4)GlcNAc(b1-6)]GalNAc
# In short: as §1
# [5] = target: Gal(b1-4)GlcNAc(b1-3)Gal(b1-4)GlcNAc(b1-6)[Gal(b1-3)]GalNAc
# In short: as §1
# [6] = target: Gal(b1-4)GlcNAc(b1-3)Gal(b1-4)[Fuc(a1-3)]GlcNAc(b1-3)Gal(b1-4)[Fuc(a1-3)]GlcNAc
# In short: as §1
# [7] = target: Gal(b1-4)GlcNAc(b1-3)GalNAc
# In short: as §1
# [8] = target: Gal(b1-4)GlcNAc(b1-3)[Fuc(a1-3)GlcNAc(b1-6)]Gal(b1-4)Glc
# In short: as §1
# [9] = target: Gal(b1-4)GlcNAc(b1-3)[Gal(b1-4)GlcNAc(b1-6)]Gal(b1-4)GlcNAc
# In short: as §1
# [10] = target: Gal(b1-4)GlcNAc(b1-3)[GlcNAc(b1-6)]Gal(b1-4)GlcNAc
# In short: as §1
# [11] = target: Gal(b1-4)GlcNAc(b1-6)Gal(b1-4)GlcNAc
# In short: as §1
# [12] = target: Gal(b1-4)GlcNAc(b1-6)GalNAc
# In short: as §1
# [13] = target: Gal(b1-4)GlcNAc(b1-6)[Gal(b1-3)]GalNAc
# In short: as §1
# [14] = target: Gal(b1-4)GlcNAc(b1-6)[Gal(b1-4)GlcNAc(b1-3)]GalNAc
# In short: as §1
# Gal(b1-4)GlcNAc6P = target: Gal(b1-4)GlcNAc6P
# In short: as §1
# Gal(b1-6)Gal = target: Gal(b1-6)Gal
# In short: as §1
# Gal3S(b1-3)GalNAc = target: Gal3S(b1-3)GalNAc
# In short: as §1
# Gal3S(b1-3)GlcNAc = target: Gal3S(b1-3)GlcNAc
# In short: as §1
# [15] = target: Gal3S(b1-3)[Fuc(a1-4)]GlcNAc
# In short: as §1
binder,measurement,setting,value
B1,glycan array binding signal (z-score),[1],-0.207
same,glycan array binding signal (z-score),[2],-0.295
same,glycan array binding signal (z-score),[3],-0.287
same,glycan array binding signal (z-score),[4],-0.242
same,glycan array binding signal (z-score),[5],-0.258
same,glycan array binding signal (z-score),[6],-0.244
same,glycan array binding signal (z-score),[7],-0.275
same,glycan array binding signal (z-score),[8],-0.308
same,glycan array binding signal (z-score),[9],-0.287
same,glycan array binding signal (z-score),[10],-0.287
same,glycan array binding signal (z-score),[11],-0.29
same,glycan array binding signal (z-score),[12],2.24
same,glycan array binding signal (z-score),[13],-0.259
same,glycan array binding signal (z-score),[14],-0.293
same,glycan array binding signal (z-score),Gal(b1-4)GlcNAc6P,-0.305
same,glycan array binding signal (z-score),Gal(b1-6)Gal,-0.234
same,glycan array binding signal (z-score),Gal3S(b1-3)GalNAc,-0.274
same,glycan array binding signal (z-score),Gal3S(b1-3)GlcNAc,-0.269
same,glycan array binding signal (z-score),[15],-0.288
